Measurements as given in publication PMC4336329 (PLoS ONE, 2015).
In all, about 310,000 compounds went through this assay and about 14,000 (4.5%) showed an effect of 50% or more. The effect is printed as a negative number. This is one part of the list.

Each molecule was assayed against human ether-à-go-go-related gene (hERG) potassium channel (human, UniProt Q12809) (assay: primary screen, population patch clamp on CHO cells stably expressing hERG).
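Further: peak tail current of the secondary pulse compared with the same well before compound.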

Sequence of human ether-à-go-go-related gene (hERG) potassium channel (Q12809 whole entry, looked up): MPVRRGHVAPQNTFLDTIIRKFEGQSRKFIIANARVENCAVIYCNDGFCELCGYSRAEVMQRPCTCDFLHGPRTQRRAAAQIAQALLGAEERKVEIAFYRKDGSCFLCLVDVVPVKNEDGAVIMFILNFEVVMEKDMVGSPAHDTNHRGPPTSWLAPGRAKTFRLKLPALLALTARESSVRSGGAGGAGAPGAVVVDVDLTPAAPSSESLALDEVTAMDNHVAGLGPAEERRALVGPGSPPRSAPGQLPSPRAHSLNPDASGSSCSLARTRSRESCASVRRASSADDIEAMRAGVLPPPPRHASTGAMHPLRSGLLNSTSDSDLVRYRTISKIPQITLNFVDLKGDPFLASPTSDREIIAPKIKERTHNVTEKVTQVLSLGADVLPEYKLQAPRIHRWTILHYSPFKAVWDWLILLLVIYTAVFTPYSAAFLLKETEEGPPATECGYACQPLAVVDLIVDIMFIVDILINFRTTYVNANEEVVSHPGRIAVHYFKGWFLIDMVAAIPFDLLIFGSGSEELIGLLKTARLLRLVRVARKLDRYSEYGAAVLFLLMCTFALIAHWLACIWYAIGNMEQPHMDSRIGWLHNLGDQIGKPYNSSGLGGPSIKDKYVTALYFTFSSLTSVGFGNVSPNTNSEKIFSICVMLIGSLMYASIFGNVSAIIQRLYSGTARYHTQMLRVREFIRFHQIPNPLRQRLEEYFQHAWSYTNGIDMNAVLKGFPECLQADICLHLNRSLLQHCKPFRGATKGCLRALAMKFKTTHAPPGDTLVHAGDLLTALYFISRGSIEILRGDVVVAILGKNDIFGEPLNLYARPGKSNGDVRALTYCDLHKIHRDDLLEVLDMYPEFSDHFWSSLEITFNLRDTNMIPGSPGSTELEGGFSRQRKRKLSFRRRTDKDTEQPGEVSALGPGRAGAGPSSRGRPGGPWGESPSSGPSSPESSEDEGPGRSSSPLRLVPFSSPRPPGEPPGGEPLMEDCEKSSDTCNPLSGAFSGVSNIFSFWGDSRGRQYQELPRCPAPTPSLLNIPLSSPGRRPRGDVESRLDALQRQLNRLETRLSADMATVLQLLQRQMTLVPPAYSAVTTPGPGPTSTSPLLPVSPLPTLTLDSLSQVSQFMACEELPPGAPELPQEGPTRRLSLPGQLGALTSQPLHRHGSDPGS

| Compound | hERG current change (%, negative = inhibition) at 10uM |
| --- | --- |
| COc1ccccc1-c1nnc(C2CCN(S(=O)(=O)c3ccc([N+](=O)[O-])cc3)CC2)o1 | -74.6% |
| COc1ccc(N2CCN(C(=O)COC(=O)CCOc3ccc(C(C)(C)C)cc3)CC2)cc1 | 15.9% |
| C=CCNC(=O)C1CC2Cn3c(nc4cc(C)c(C)cc43)C2N1C (stereo not drawn) | -7.6% |
| C=CCOc1ccc(C2N3CC4(C)CN2CC(CCC)(C3)C4=O)cc1 (stereo not drawn) | -16.9% |
| CCCCc1cc(=O)oc2cc(C)cc(OCC(=O)Nc3ccccn3)c12 | 28.6% |
| CCOc1ccc(Nc2nc3ccccc3c(=O)s2)cc1 | 19.2% |
| CCCCn1c(CNC(=O)C23CC4CC(CC(C4)C2)C3)nnc1SCC(=O)Nc1nnc(C)s1 | -10.4% |
| Cc1cc(C)c2c(n1)SCC(=O)N2CC(=O)Nc1ccc(F)cc1 | -7.69% |
| COc1ccc(OCC(O)CNC(=O)c2ccc(OC)cc2)cc1 (stereo not drawn) | 14.9% |
| O=C(Nc1ccc(S(=O)(=O)N2CCCCCC2)cc1)c1[nH]ncc1[N+](=O)[O-] | 35.4% |
| Cc1cc(NC(=O)COC(=O)CNC(=O)c2cccs2)c([N+](=O)[O-])cc1C | -21.2% |
| Cc1ccc(-c2nn(-c3ccccc3)cc2CNCc2ccccc2)cc1.Cl | 7.42% |
| Cc1ccc(C(=O)NCC(c2ccc(F)cc2)N2CCOCC2)cc1 (stereo not drawn) | 12.7% |
| N#Cc1ccc(OC(=O)C2CCN(C3=NS(=O)(=O)c4ccccc43)CC2)cc1 | 4.86% |
| Cc1cccc(C(=O)NNC(=S)NC(=O)c2ccccc2)c1 | 20.2% |
| COc1ccc(CC(=O)NC(C)c2nnc(SCC(=O)Nc3ccccc3)n2C)cc1 (stereo not drawn) | 2.5% |
| COc1cccc(OC)c1C(=O)Nc1cc(C)nn1-c1nc2ccccc2[nH]1 | 7.24% |
| CCCCCn1c(SCC2CCCO2)nc2cc(C(=O)N3CCC(C(N)=O)CC3)ccc2c1=O (stereo not drawn) | -64.7% |
| Cc1nc2ccc(NC(=O)c3cc(Cl)ccn3)cc2s1 | 17.4% |
| O=C(O)CCSSCCC(=O)O | 15.4% |
| Cl.OCCN1CCN(c2nc3ccccc3nc2-c2ccccc2)CC1 | -10.7% |
| N=C1S/C(=C\c2ccco2)C(=O)N1c1nccs1 | 11% |

| Compound | hERG current change (%, negative = inhibition) at 10uM |
| --- | --- |
| Cc1ccc(NC(=O)C2(C)Cc3ccccc3C(=O)O2)cc1 (stereo not drawn) | -5.03% |
| Cc1nc2ccc(OC(=O)c3ccccc3)cc2s1 | 7.96% |
| c1ccc(-c2[nH]ncc2CN2CCc3ccccc3C2)cc1 | -2.39% |
| CC(C#N)Sc1ccc(S(=O)(=O)N2CCCCC2)cn1 (stereo not drawn) | 0.0728% |
| COc1ccc(OCCOc2ccc(/C=C3\C(=N)N4N=C(C)SC4=NC3=O)cc2)cc1 | 6.54% |
| CCc1nc2c(c(=O)[nH]1)C(CC)(CC)Cc1ccccc1-2 | -13.8% |
| CC(=O)C1C(c2ccc(C)cc2)c2c(n[nH]c2C)CC1(C)O (stereo not drawn) | 23.1% |
| CCn1c(CNC(=O)c2cccs2)nnc1SCC(=O)Nc1ccc(Cl)cc1 | -57.5% |
| CCOc1ccc(OCC(O)CN2CCN(S(=O)(=O)c3cccc(C(F)(F)F)c3)CC2)cc1.O=C(O)C(=O)O (stereo not drawn) | 13.7% |
| COc1ccc(NC2c3ccccc3C(=O)N2Cc2ccco2)cc1OC (stereo not drawn) | -17.2% |
| CCOC(=O)c1ccccc1NC(=S)N1CC(C)CC(C)C1 (stereo not drawn) | -7.45% |
| Cc1cccc(N(C(=O)c2csnn2)C(C(=O)NC2CCCC2)c2ccncc2)c1 (stereo not drawn) | -23.1% |
| Cc1[nH]nc(SCC(=O)N2CCCCC2)c1[N+](=O)[O-] | 19.8% |
| O=C(CNC(=O)c1ccco1)OCc1c(F)cccc1Cl | -5.42% |
| CCOC(=O)c1cccc(NC(=O)C(NS(=O)(=O)c2ccc3c(c2)CCN3C(C)=O)C(C)C)c1 (stereo not drawn) | 1.15% |
| CC(C)CC(=O)Nc1sc2c(c1C(=O)O)CCCCC2 | 25.8% |
| COc1ccc(CC(=O)Nc2nc3n(n2)C(c2ccccc2)CC(=O)N3)cc1OC (stereo not drawn) | 5.18% |
| CSc1cccc(NC(=O)CN(C)S(=O)(=O)c2ccc(F)cc2)c1 | -11.1% |
| CCOc1ccc(S(=O)(=O)N2CCN(C(=O)c3ccccc3Cc3ccccc3)CC2)cc1 | 3.09% |
| CCOc1cc(C(=O)O)cc(Cl)c1OCC#N | 10.5% |
| CCN(CC)CCn1c2c(c(SCC(=O)Nc3cccc4ccccc34)nc1=O)CCC2 | -62.7% |
| O=c1[nH]c2ccc(S(=O)(=O)N3CCCCC3)cc2[nH]c1=O | 7.24% |

| Compound | hERG current change (%, negative = inhibition) at 10uM |
| --- | --- |
| CCCCN(C)Cc1c(C)[nH]c2c(Cl)cccc2c1=O | -38.7% |
| O=C(Nc1nnc(SCc2cccc3ccccc23)s1)C1COc2ccccc2O1 (stereo not drawn) | -2.81% |
| O=C(c1ccc(OC2CCN(Cc3ccccc3O)CC2)cc1)N1CCCCC1 | 3.29% |
| c1coc(C2Nc3ccccc3C3OCCC23)c1 (stereo not drawn) | 6.63% |
| O=C1NC2(CCCCCC2)C(=O)N1Cc1c(F)cccc1Cl | -9.11% |
| CCOc1ccc(C(=O)Nc2cnn(Cc3ccc(Cl)c(Cl)c3)c2)cc1 | 10.3% |
| COc1ccc(C(=O)Nc2nc(CC(=O)NCc3ccc(F)cc3)cs2)cc1 | -34.2% |
| Cc1ccc2oc(=O)c3cnn(CC(=O)N4CCN(c5ccccc5)CC4)c3c2c1 | -20.3% |
| CC(Oc1cc2oc(=O)c3c(c2cc1Cl)CCC3)C(=O)NCCCN1CCOCC1 (stereo not drawn) | 12% |
| CCOC(=O)CN(Cc1ccc(OC)c(OC)c1)S(=O)(=O)c1ccc(OC)cc1 | -13.4% |
| O=C(NC(c1ccccc1)c1c(O)ccc2ccccc12)c1ccccc1Cl (stereo not drawn) | 17.9% |
| O=C(/C=C/c1ccc2ccccc2n1)N1CCN(c2ccccc2)CC1 | -52.1% |
| Cc1ccc(NC(=O)n2ncc3c(C)cccc32)c(C)c1 | 16.6% |
| COc1cccc(CN(C(=O)COc2ccc(C)cc2)C2CCS(=O)(=O)C2)c1 (stereo not drawn) | -13% |
| O=C(NCCCc1ccccc1)c1cnc2n(c1=O)CCS2 | 10.7% |
| COc1ccc(-c2nnn(CC(=O)N(CCCO)C(C(=O)NC3CCCC3)c3ccc(F)cc3)n2)cc1 (stereo not drawn) | -8.29% |
| COC(=O)Cn1nnc(-c2cccc(OC)c2)n1 | -2.98% |
| C=CCNC(=S)NNC(=O)c1ccc(OCC(C)C)cc1 | -7.83% |
| CCOc1ccccc1NC(=O)CCNS(=O)(=O)c1ccc2[nH]c(=O)oc2c1 | 9.11% |
| CCOc1cc(/C=N\NC(=O)c2c(C)nc3ccccn23)ccc1O | 5.46% |
| COc1ccc2c(c1)C1NC(=S)NC(C)(O2)C1C(=O)Nc1ccc(Cl)cc1 (stereo not drawn) | -5.47% |
| O=C(N/N=C\C=C\c1ccc2c(c1)OCO2)c1cccnc1 | -24.2% |

| Compound | hERG current change (%, negative = inhibition) at 10uM |
| --- | --- |
| COc1cccc2cc(C(=O)NCc3ccccc3Br)c(=O)oc12 | 19% |
| CCOC(=O)c1ccc(NC(=S)NN2CCOCC2)cc1 | 7.59% |
| O=C(NCCCCC(NC(=O)c1ccc([N+](=O)[O-])cc1)C(=O)O)c1ccc([N+](=O)[O-])cc1 (stereo not drawn) | -44.7% |
| COC(=O)[C@H](Cc1ccccc1)NC(=O)N1CCN(c2ccccc2)CC1 | -10.8% |
| CC1Nc2ncnc(N3CCOCC3)c2N(Cc2ccccc2)C1=O.O=C(O)C(F)(F)F (stereo not drawn) | 10.1% |
| Cc1c(C(=O)/C=C/c2cccs2)oc2ccc(F)cc12 | 11.7% |
| CC(C)CC(=O)Nc1nc2ccc(S(=O)(=O)N3CCOCC3)cc2s1 | 7.14% |
| CC1(C)Cc2c(c(N3CCCC3)[nH]c(=S)c2C#N)CO1 | -5.11% |
| CC1CN(C(=O)c2cc([N+](=O)[O-])cc([N+](=O)[O-])c2)CC(C)O1 (stereo not drawn) | 25.5% |
| CNc1ccccc1-n1ccc(-c2ccccc2)n1 | 1.14% |
| CCOc1ccc(C(=O)N(Cc2ccc(N(C)C)cc2)C2CCS(=O)(=O)C2)cc1 (stereo not drawn) | -11.3% |
| Cc1ccc(CCNC(=O)C2CCN(S(=O)(=O)c3ccc4c(c3)oc(=O)n4C)CC2)cc1 | 9.19% |
| O=C(NNC(=O)c1ccc(-n2cncn2)c([N+](=O)[O-])c1)c1ccc(Cl)cc1 | -9.94% |
| CCN(CC)CCOC(=O)c1ccc(NC(=O)CNC(=O)c2ccccc2)cc1.Cl | 26.9% |
| CCOC(=O)Cc1c(Cl)c2ccccc2[nH]c1=O | 20% |
| O=C(O/N=C(\c1ccccc1)c1ccccn1)c1ccc(Cl)c(Cl)c1 | 15.3% |
| CC(SCC(=O)Nc1ccc(F)cc1)c1nc2ccccc2c(=O)[nH]1 (stereo not drawn) | 14.8% |
| Cc1cc2nc(CCN(C(=S)NCC(C)C)C3CCCC3)[nH]c2cc1C | -10.1% |
| CCOC(=O)N1CCN(c2c(N3CCN(c4ccc(F)cc4)CC3)c(=O)c2=O)CC1 | -73.4% |
| CCOC(=O)C1(CCOC)CCN(C(C)CCc2ccc(OC)cc2)CC1 (stereo not drawn) | -71.1% |
| Cc1ccc(NC(=O)CC(=O)Nc2ccc(C)cc2C)c(C)c1 | 7.17% |
